# Reference: publication PMC10789739
# Protein sequences, listed by entry. Tags and fused reporters are not part of them.
# UniProt Q14974: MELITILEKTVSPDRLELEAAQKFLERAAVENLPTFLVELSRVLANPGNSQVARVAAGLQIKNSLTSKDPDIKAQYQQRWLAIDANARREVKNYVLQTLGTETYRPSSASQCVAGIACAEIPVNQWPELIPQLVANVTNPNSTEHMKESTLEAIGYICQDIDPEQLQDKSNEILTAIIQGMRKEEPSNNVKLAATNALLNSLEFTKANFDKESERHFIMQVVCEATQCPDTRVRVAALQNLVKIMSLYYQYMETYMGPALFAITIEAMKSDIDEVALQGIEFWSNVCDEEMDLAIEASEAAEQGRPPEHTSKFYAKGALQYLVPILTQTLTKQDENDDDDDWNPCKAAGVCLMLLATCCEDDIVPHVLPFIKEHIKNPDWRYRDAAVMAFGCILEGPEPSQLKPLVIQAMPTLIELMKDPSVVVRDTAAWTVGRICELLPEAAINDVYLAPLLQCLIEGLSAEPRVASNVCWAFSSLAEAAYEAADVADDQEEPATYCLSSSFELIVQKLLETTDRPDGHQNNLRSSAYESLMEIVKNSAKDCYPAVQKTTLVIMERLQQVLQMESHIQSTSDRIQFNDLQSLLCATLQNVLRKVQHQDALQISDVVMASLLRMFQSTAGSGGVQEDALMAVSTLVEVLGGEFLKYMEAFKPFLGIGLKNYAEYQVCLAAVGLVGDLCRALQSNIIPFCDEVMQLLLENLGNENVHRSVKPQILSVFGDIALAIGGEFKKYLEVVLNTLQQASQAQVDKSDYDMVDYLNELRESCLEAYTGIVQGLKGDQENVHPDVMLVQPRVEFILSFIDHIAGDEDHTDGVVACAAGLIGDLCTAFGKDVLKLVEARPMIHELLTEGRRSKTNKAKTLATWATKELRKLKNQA
# UniProt Q04206: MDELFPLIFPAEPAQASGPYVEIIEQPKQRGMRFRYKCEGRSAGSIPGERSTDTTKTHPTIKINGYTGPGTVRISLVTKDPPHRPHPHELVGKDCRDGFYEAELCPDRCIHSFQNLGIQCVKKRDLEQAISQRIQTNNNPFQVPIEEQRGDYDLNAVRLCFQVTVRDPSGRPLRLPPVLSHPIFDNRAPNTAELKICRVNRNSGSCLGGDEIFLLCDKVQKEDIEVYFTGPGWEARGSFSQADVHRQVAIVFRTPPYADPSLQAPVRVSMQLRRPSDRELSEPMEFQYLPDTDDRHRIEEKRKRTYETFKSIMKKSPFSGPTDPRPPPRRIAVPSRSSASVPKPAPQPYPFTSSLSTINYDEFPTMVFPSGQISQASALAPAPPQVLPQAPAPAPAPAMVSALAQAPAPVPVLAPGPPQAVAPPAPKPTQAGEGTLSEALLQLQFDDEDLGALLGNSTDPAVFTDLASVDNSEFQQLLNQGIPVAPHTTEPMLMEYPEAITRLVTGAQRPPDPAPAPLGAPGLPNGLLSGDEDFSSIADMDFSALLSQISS
# UniProt P04406: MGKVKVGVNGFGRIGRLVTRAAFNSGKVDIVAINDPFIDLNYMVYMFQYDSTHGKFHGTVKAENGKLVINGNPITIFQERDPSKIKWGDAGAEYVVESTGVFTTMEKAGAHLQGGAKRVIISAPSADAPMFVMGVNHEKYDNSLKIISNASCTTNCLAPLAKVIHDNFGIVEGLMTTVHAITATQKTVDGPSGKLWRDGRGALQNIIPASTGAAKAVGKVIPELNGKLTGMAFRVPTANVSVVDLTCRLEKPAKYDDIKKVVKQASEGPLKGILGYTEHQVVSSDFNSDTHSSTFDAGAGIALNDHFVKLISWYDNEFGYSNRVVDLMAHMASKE
# UniProt O00629: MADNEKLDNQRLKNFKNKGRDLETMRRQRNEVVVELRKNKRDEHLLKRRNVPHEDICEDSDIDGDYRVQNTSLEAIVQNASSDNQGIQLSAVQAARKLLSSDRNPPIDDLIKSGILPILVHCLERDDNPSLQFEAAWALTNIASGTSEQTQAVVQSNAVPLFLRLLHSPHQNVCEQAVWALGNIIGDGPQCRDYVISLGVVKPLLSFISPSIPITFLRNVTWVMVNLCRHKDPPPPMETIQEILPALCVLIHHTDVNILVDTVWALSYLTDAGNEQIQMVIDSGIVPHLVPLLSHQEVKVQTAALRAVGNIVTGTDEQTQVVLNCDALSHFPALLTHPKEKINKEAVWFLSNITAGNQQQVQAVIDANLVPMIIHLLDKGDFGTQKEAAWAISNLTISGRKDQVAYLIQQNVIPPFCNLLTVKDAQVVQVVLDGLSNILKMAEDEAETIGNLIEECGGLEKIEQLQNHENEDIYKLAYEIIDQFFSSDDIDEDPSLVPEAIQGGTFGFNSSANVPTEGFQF
# UniProt P52294: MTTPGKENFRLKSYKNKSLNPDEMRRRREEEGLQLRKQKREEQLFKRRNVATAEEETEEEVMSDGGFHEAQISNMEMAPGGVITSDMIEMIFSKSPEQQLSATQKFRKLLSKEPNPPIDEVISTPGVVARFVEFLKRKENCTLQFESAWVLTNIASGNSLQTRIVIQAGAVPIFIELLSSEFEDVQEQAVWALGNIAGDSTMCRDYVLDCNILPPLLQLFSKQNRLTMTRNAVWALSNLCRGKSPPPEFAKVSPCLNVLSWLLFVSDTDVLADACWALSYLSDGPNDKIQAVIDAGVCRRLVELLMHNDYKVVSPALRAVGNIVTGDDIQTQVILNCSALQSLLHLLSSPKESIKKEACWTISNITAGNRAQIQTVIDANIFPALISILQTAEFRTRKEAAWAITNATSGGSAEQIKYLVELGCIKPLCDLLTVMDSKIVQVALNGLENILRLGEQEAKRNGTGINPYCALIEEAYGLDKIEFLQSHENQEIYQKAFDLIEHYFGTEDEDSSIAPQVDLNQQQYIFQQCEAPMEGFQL
# UniProt O00505: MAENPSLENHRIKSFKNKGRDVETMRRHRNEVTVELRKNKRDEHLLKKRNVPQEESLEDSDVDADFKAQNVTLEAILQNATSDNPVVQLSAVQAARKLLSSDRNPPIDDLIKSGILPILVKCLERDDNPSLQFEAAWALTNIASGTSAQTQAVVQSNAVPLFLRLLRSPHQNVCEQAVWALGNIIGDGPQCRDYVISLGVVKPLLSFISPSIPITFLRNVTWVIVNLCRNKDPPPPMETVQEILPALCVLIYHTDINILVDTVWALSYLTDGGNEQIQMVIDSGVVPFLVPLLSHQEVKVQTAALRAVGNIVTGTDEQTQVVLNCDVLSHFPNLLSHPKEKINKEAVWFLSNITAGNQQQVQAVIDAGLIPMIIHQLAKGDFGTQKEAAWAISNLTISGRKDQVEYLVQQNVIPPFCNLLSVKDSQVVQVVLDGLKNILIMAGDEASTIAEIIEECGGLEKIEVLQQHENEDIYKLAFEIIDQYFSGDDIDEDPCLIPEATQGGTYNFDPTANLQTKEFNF
# UniProt O15131: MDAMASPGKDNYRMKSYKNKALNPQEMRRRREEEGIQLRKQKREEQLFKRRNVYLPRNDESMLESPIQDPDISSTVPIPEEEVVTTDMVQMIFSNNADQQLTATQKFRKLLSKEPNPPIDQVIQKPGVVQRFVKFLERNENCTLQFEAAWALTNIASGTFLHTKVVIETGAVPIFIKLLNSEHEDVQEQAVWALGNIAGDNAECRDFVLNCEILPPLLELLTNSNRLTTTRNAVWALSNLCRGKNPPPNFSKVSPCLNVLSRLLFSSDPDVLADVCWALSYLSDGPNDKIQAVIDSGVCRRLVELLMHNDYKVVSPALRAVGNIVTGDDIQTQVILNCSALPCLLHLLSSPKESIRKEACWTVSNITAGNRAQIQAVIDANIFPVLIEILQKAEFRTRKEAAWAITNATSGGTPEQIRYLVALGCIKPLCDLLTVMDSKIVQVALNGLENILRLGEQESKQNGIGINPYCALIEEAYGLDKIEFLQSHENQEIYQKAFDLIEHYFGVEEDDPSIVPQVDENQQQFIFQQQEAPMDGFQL
# UniProt O00165: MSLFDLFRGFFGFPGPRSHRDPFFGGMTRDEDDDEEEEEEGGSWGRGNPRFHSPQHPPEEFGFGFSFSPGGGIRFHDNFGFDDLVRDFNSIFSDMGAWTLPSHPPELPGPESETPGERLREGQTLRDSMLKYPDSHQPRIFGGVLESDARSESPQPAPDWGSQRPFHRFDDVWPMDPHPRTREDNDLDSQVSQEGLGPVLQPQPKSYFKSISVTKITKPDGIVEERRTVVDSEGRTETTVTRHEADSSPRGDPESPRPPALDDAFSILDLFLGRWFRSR
# Results are given in words; binding and its absence hold for the method and conditions named. In cells and extracts the contact can be indirect. Some results given as binding are weak or reduced against the parent protein; the word gives no strength. Where a sequence is shown, tags or fusion partners need not be part of it.
# T1: IL-1α precursor fused with a HiBiT-tag at the N-terminus and a His-tag at the C-terminus (HiBiT-IL-1α-His) (human) (UniProt P01583)
# T1 sequence: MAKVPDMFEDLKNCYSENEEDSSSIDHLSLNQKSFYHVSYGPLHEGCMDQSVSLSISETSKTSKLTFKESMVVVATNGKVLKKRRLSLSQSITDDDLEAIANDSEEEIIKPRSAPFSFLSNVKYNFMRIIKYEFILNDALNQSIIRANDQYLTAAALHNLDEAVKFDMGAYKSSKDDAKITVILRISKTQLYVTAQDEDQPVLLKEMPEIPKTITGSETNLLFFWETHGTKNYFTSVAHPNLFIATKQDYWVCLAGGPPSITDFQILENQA
# B1: IL-1α precursor fused with a HiBiT-tag at the N-terminus and a His-tag at the C-terminus (HiBiT-IL-1α-His) (protein, UniProt P01583 1-271)
# chain: T1 sequence
# Target: Importin subunit beta (importin β1) (human (endogenous in HeLa)) (UniProt Q14974)
# Experiment: co-IP; anti-importin β1 antibody coupled to Dynabeads M-270 Epoxy; lysate of HeLa cells expressing His-tag-fused IL-1α, 30 min at 4 °C; input, supernatant and pellet fractions blotted
row,binding,Molecule
1,binds,p65 (from UniProt Q04206 1-551)
2,no binding,GAPDH (from UniProt P04406 1-335)
3,no binding,B1

# Target: T1, IL-1α precursor fused with a HiBiT-tag at the N-terminus and a His-tag at the C-terminus (HiBiT-IL-1α-His) (human)
# Experiment: pull-down; cobalt-based IMAC (Dynabeads His-Tag Isolation and Pulldown) of His-tag-fused IL-1α from lysate of transfected HeLa cells; beads 5 min at room temperature; washes in 50 mM Na-phosphate pH 8.0, 300 mM NaCl, 0.01% Tween 20; elution with 300 mM imidazole; flow-through and elution fractions blotted
row,binding,Molecule
1,binds,Importin subunit alpha-3 (from UniProt O00629 1-521)
2,binds,Importin subunit alpha-7 (from UniProt O60684 1-536)
3,no binding,Importin subunit beta (importin β1) (from UniProt Q14974 1-876)
4,no binding,GAPDH (from UniProt P04406 1-335)
5,binds,Importin subunit alpha-5 (from UniProt P52294 1-538)
6,binds,Importin subunit alpha-4 (from UniProt O00505 1-521)
7,binds,Importin subunit alpha-6 (from UniProt O15131 1-539)
8,binds,HCLS1-associated protein X-1 (from UniProt O00165 1-279)
